# The campaign covered roughly 310,000 compounds. About 14,000 (4.5%) showed an effect of 50% or more. Effects have a minus sign here. The list shows a part of the results.
# Target: human ether-à-go-go-related gene (hERG) potassium channel (human, UniProt Q12809)
# Assay: primary screen, population patch clamp on CHO cells stably expressing hERG
# 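Further: peak tail current of the secondary pulse compared with the same well before compound.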
# Sequence of human ether-à-go-go-related gene (hERG) potassium channel (Q12809 whole entry, looked up): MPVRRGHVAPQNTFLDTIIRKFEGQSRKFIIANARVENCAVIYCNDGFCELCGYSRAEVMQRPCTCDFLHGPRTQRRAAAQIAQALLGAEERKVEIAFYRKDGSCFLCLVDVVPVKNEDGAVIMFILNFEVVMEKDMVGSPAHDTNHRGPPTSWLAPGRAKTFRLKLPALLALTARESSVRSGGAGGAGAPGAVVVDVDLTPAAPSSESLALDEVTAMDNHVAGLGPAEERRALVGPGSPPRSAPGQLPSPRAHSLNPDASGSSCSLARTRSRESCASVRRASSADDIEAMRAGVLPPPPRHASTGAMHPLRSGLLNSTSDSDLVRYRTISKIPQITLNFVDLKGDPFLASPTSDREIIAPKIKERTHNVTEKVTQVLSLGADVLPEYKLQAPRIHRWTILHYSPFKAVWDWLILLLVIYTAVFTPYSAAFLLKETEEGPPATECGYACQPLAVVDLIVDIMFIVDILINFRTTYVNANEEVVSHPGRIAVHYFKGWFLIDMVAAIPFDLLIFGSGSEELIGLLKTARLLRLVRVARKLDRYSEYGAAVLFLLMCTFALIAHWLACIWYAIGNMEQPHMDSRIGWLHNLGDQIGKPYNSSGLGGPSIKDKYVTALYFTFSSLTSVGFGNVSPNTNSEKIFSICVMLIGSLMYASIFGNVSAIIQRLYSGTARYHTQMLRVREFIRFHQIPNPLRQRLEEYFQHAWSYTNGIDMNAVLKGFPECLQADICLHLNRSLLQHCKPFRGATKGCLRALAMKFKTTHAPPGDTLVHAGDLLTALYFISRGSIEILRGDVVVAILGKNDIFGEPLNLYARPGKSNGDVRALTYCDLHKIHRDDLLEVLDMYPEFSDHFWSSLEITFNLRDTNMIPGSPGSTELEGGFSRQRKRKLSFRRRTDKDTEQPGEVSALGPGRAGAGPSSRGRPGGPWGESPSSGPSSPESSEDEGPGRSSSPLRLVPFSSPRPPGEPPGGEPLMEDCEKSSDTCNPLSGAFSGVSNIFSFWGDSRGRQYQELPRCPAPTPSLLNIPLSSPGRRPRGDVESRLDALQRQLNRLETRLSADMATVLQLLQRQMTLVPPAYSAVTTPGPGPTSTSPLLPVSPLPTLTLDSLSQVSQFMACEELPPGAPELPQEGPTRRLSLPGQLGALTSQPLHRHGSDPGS
row,SMILES,"hERG current change (%, negative = inhibition) at 10uM [%]"
1,CCn1c(SCC(=O)NC2CC2)nnc1-c1cccs1,-5.39
2,CCc1cc2ccc(OC)cc2nc1SCC(=O)NNC(=O)c1ccco1,9.26
3,CCCC(=O)Nc1ccc(Br)c(Cl)c1,8.65
4,O=C(O)CCn1cc(/C=C\C(=O)c2ccc(Cl)cc2)c(-c2cccc(Br)c2)n1,5.23
5,Clc1ccccc1-c1nnc2n1-c1ccccc1SC2,-3.67
6,CCOC(=O)c1cc2c(=O)n3ccccc3nc2n(C(C)C)c1=NC(=O)c1ccco1,-56.8
7,COc1cccc(N=Nc2c(=O)[nH]n3c(=O)cc(C)[nH]c23)c1,26.9
8,COc1ccc(N2CC(C(=O)Nc3nnc(SCC(=O)N4CCCC4)s3)CC2=O)cc1 (stereo not shown),19.9
9,O=C(CCSCCc1ccccn1)Nc1cc(F)ccc1F,-1.64
10,Cc1cccc(N2CCN(CC(O)COc3ccc(Cl)cc3)CC2)c1 (stereo not shown),-41.3
11,COc1ccc(OC)c(-c2csc(NC(=O)CN3C(=O)NC4(CCCC4)C3=O)n2)c1,-23.6
12,CCc1ccc(NC(=O)CN(c2cc(C)cc(C)c2)S(=O)(=O)c2c(C)[nH]c(=O)[nH]c2=O)cc1,-33.7
13,COc1ccc(OCc2nn3c(-c4ccccn4)nnc3s2)cc1,-34.7
14,CCOc1ccc(-n2c(C)cc(/C=N\NC(=O)CC(=O)NC3CCCCC3)c2C)cc1,3.74
15,COc1ccccc1CN1CCNC(=O)C1CC(=O)NCc1c(C)n[nH]c1C (stereo not shown),17.2
16,Cc1cc(N2CCN(C3CCCCC3)CC2)n2nc(C)nc2n1,-57.7
17,COc1cccc(N2CCN(c3ccc(N4C(=O)CCC4=O)cc3[N+](=O)[O-])CC2)c1,13.7
18,COc1ccc(N2CCN(C(CNC(=O)C(C)C)c3ccc4c(c3)OCO4)CC2)cc1 (stereo not shown),9.23
19,O=C(Cc1ccccc1)NC(Nc1ccccc1)C(Cl)(Cl)Cl (stereo not shown),4.12
20,N#Cc1cccc(C(=O)N(CCc2ccccc2)Cc2cccs2)c1,-53.3
21,Cc1ccc(CN2C3CCCC2CC(NC(=O)Nc2cccc(F)c2)C3)cc1 (stereo not shown),-85.7
22,CNC(=O)Oc1ccc(N(C)C)cc1C(C)C,1.97

row,SMILES,"hERG current change (%, negative = inhibition) at 10uM [%]"
1,COc1cc(OC)cc(C(=O)N[C@H](C(=O)Nc2nc(-c3cc(OC)ccc3OC)cs2)C(C)C)c1,-15.2
2,CN(C)CCCNS(=O)(=O)c1ccc(N2CCN(Cc3ccc4c(c3)OCO4)CC2)c([N+](=O)[O-])c1,-17.8
3,Cc1cc(NS(=O)(=O)c2ccc(NC(=O)c3cnc(Cl)c(Cl)c3)cc2)nc(C)n1,5.45
4,S=C(Nc1cccc(Cl)c1)N1CCN(c2ccccn2)CC1,12.9
5,Cc1ccc(C(=O)N/N=C\c2cccnc2)s1,6.27
6,O=C1CC(N2CCC(O)(c3ccc(Cl)cc3)CC2)C(=O)N1Cc1ccc(N2CCCC2=O)cc1 (stereo not shown),-22
7,COc1cc(NC(=O)CSCc2ccccc2)c(C(=O)O)cc1OC,11.2
8,Cc1ccc2[nH]c(=O)c(CN(Cc3ccccc3Cl)C(=O)N3CCOCC3)cc2c1,-40.9
9,O=C(CSc1ncccn1)Nc1cccc2ccccc12,-3.33
10,COc1ccccc1CCNC(=O)C(=O)NCCC1CCCCN1S(=O)(=O)c1cccs1 (stereo not shown),-6.92
11,CNCCC(=O)N1c2ccccc2CCc2ccc(NC(=O)OC)cc21.Cl,19.2
12,O=C1c2cc(O)cc(O)c2C(=O)c2c1cc(O)c([C@@H](CO)CCO)c2O,24.9
13,O=C(CN(C(=O)CNS(=O)(=O)c1ccc(F)cc1)c1cccc(F)c1)NCC1CCCO1 (stereo not shown),20.7
14,CC(=O)Nc1ccc(NC(=O)C(C)OC(=O)c2ccccc2NS(=O)(=O)c2cccs2)cc1 (stereo not shown),-16
15,O=C1NC(=O)C2(Cc3cc([N+](=O)[O-])ccc3N3CCN(C(=O)c4ccccc4)CC32)C(=O)N1 (stereo not shown),23
16,COc1ccc(C(=O)NCC(=O)NCC2(N(C)C)CCCCC2)cc1OC,3.45
17,Cc1cccc(NC(=O)c2cc(-c3cc(C)c(C)cc3O)n[nH]2)c1,21.4
18,COC(=O)c1ccc2c(=O)n(NC(=O)C(c3ccccc3)c3ccccc3)c(=S)[nH]c2c1,-18.3
19,S=c1[nH]ccn1-c1ccc(Cl)cc1,19.8
20,CCN(CC)C(=O)Cn1cc(S(=O)(=O)CC(=O)Nc2ccc(C(N)=O)cc2)c2ccccc21,18.2
21,COc1ccccc1OCCOCCN1CCCC1,10.1
22,CC(C)NC(=O)c1ccc(N2CCOCC2)nc1,17.1

row,SMILES,"hERG current change (%, negative = inhibition) at 10uM [%]"
1,CCOc1ccccc1C1c2[nH]c3ccccc3c2C[C@H]2C(=O)N(C3CCN(Cc4ccccc4)CC3)CC(=O)N12 (stereo partly shown),-35.7
2,CC1(C)c2[nH]c3ccccc3c2C[C@@H]2C(=O)N(Cc3ccccc3Cl)C(=O)N21,15.4
3,Cc1ccc(S(=O)(=O)NC(=O)N2CCN(Cc3c(F)cccc3Cl)CC2)cc1,23.6
4,O=C(/C=C/c1ccc(O)cc1)c1ccccc1,3.82
5,C/C(=C\c1ccco1)CN1CCN(Cc2ccc(C)o2)C(CCO)C1 (stereo not shown),-7.26
6,CC(=O)N1CCCc2ccccc21,15.5
7,C=C(C)C(=O)N1CC2(CC(c3cccc(NC(=O)c4ccccc4)c3)=NO2)C[C@@H]1C(N)=O (stereo partly shown),-8.1
8,CC(C)(C)NC(=O)C(c1ccc(Cl)cc1)N(Cc1ccco1)C(=O)CCl (stereo not shown),-3.86
9,NC(=O)c1ccc(N2CCCCC2)c(N2C(=O)C3C4C=CC(C4)C3C2=O)c1 (stereo not shown),6.9
10,COc1ccc(C(=O)C[n+]2ccc3c(c2)nc(-c2cc(OC)c(OC)cc2OC)n3C)cc1.[Br-],6.93
11,CCOC(=O)c1cc(-c2ccccc2)n(CC(=O)O)c1C,-3.73
12,CC12CCC(C(=O)NCc3ccccc3Cl)(CC1=O)C2(C)C (stereo not shown),7.53
13,CCN(CC)C(=O)c1sc(N2C(=O)Nc3ccccc3N2O)c(C(=O)OC)c1C,-4.49
14,COc1cccc(NC(=O)CN(C)C(=O)C(CCSC)NC(=O)c2ccco2)c1 (stereo not shown),-3.97
15,O=C(COc1ccccc1)NCC(=O)NC1=NCCS1,12.8
16,COc1cc(OC)nc(NC(=O)CSc2nc3ccccc3[nH]2)n1,-1.61
17,O=C1CCC(C(=O)N2CCCC(N3CCN(c4cccc(C(F)(F)F)c4)CC3)C2)=NN1 (stereo not shown),-26.6
18,O=C(Cn1cc(/C=N/O)c2ccccc21)N1CCOCC1,22.4
19,CC(C)(C)NC(=O)C(c1ccc(O)cc1)N(C(=O)CCC(=O)Nc1nccs1)c1ccc(F)cc1 (stereo not shown),7.84
20,Clc1ccc(OCC#CCN2CCOCC2)cc1.O=C(O)C(=O)O,24.6
21,Cc1ccc(OS(=O)(=O)c2ccc(N3C(=O)CCC3=O)cc2)cc1,15.7
22,COc1ccc(-c2cccc([C@H]3[C@@H]4C=CCC[C@@]4(C)C(=O)N3Cc3ccccc3)c2)cc1,16.7

row,SMILES,"hERG current change (%, negative = inhibition) at 10uM [%]"
1,O=C(Cn1nc(C(F)(F)F)c2c1CCC2)NCc1ccc(Cl)cc1,14.4
2,CCOC(=O)Cc1csc(NC(=O)c2cccnc2)n1,-0.223
3,N#CC(C(=O)c1ccccc1)=C1SCCS1,9.21
4,Cl.O=c1[nH]cnc2c1N1CCC2CC1,6.9
5,O=C(OCC(=O)N1CCCCCC1)c1cccs1,21.7
6,COc1ccccc1C(=O)NCCC(=O)Nc1ncccc1C,22.6
7,CCOC(=O)C(=O)Nc1nc(-c2ccccc2)c(CC)s1,-3.71
8,O=C(CSc1nc2ccccc2s1)Nc1ccc(Cl)c(S(=O)(=O)N2CCOCC2)c1,-23
9,O=C(c1ccc2c(c1)OCCO2)C1CCN(C(=O)Nc2ccccc2F)CC1,6.22
10,Cc1nn(CC(=O)OCC(=O)Nc2ccccc2[N+](=O)[O-])c(C)c1[N+](=O)[O-],-9.16
11,O=C1CCc2cc(S(=O)(=O)N3CCN(c4ccccc4F)CC3)ccc2N1,-30.1
12,Cc1ccc(N(C(=O)c2snc(C(N)=O)c2N)C(C(=O)NC2CCCC2)c2ccc(C)o2)cc1 (stereo not shown),-4.62
13,COc1ccc(OC)c(N(CC(N)=O)S(=O)(=O)c2ccc(OC)c(OC)c2)c1,-0.629
14,CCCCC(=O)Nc1cccc(-c2cn3ccccc3n2)c1,-13.6
15,O=C(NCC1CCCO1)c1ccc(S(=O)(=O)Nc2ccccc2F)cc1 (stereo not shown),0.767
16,Cc1cc(O)cc2c1O[C@@](C)(CCC[C@@H](C)CCC[C@@H](C)CCCC(C)C)CC2,-8.93
17,Cc1cc(C(=O)COC(=O)c2ccc(O)cc2O)c(C)n1-c1ccccc1,-4.8
18,CCCCOc1ccc(C2/C(=C(/O)c3ccc4c(c3)CC(C)O4)C(=O)C(=O)N2CCCN2CCOCC2)cc1OC (stereo not shown),11.9
19,Cc1nnc(SCC(=O)N2CCN(S(=O)(=O)c3ccccc3)CC2)n1Cc1ccccc1,5.16

# Source: publication PMC4336329 (PLoS ONE, 2015)
